# The other results are listed elsewhere or left out. These are noisy estimates, calculated here from bound and input reads.
# Molecular target: T1, Pho4 (S. cerevisiae) (UniProt P07270)
# T1 sequence: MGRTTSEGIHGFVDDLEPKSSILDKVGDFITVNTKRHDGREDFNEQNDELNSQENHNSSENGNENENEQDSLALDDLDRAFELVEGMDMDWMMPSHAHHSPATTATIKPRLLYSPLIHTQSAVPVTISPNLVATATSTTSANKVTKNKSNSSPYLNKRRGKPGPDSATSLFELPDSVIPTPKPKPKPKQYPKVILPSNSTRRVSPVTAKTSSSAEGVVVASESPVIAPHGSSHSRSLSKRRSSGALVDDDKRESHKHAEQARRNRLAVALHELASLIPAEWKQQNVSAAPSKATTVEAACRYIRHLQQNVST
# Assay: relative binding free energy (BET-seq); higher = weaker binding
# Details: reference: library average
row,Sequence,relative binding free energy
1,TTCGTCACGTGTAATG,0.26 kcal/mol
2,GATATCACGTGAAGTT,0.53 kcal/mol
3,GCCGTCACGTGCGGGT,0.13 kcal/mol
4,AGGTTCACGTGTCGGT,0.29 kcal/mol
5,GGCTGCACGTGGAGAT,0.14 kcal/mol
6,GTTTACACGTGGGGGA,0.09 kcal/mol
7,TGCAGCACGTGTTCGT,-0.06 kcal/mol
8,TAGATCACGTGGGGGC,0 kcal/mol
9,CGGCGCACGTGTATGG,-0.15 kcal/mol
10,TGCAACACGTGATGGG,0.15 kcal/mol
11,GTAATCACGTGTGCGT,0.26 kcal/mol
12,GAAAGCACGTGGGCGG,-0.13 kcal/mol
13,AACGGCACGTGGGGGG,-0.25 kcal/mol
14,TGGAGCACGTGTCTTG,-0.16 kcal/mol
15,TAGTCCACGTGGAAGG,0.08 kcal/mol
16,TGGAGCACGTGAAGTA,0.21 kcal/mol
17,TGTGTCACGTGTGCTC,0.11 kcal/mol
18,TGCTACACGTGGGGAG,-0.14 kcal/mol
19,CGGTCCACGTGGCGGG,-0.08 kcal/mol
20,TTTGGCACGTGGTAGA,-0.1 kcal/mol
21,ACAGTCACGTGATAGG,0.19 kcal/mol

row,Sequence,relative binding free energy
1,GGAGTCACGTGCATGG,0.12 kcal/mol
2,ATTTTCACGTGATAGC,0.49 kcal/mol
3,GATATCACGTGTGTTA,0.2 kcal/mol
4,TGCATCACGTGGTTGG,0.15 kcal/mol
5,AGTGTCACGTGGTCCA,-0.06 kcal/mol
6,CAAGTCACGTGGGGAG,-0.02 kcal/mol
7,TTAAGCACGTGTAGGC,-0.11 kcal/mol
8,TTATGCACGTGTGCGG,-0.09 kcal/mol
9,GTGGCCACGTGGTGGG,-0.1 kcal/mol
10,TCATGCACGTGTCGTG,-0.09 kcal/mol
11,GAGTGCACGTGATTAA,0.24 kcal/mol
12,CTATTCACGTGAGGTA,0.23 kcal/mol
13,TAGAACACGTGGGCGG,-0.21 kcal/mol
14,TTAGTCACGTGCAGTA,0.07 kcal/mol
15,TATTGCACGTGTTCAT,-0.02 kcal/mol
16,GTAGTCACGTGTCGTA,0.27 kcal/mol
17,TTGGACACGTGTTTCT,0.11 kcal/mol
18,TGAATCACGTGTGCTA,0.28 kcal/mol
19,GGTGGCACGTGAAGAG,0.23 kcal/mol
20,TCAAGCACGTGTGCTT,0.02 kcal/mol
21,TAGATCACGTGTAGGA,0.18 kcal/mol

row,Sequence,relative binding free energy
1,AGTGCCACGTGAGATG,0.12 kcal/mol
2,GTTGTCACGTGCGATG,0.12 kcal/mol
3,TGCGTCACGTGCTGTA,0.12 kcal/mol
4,CGGGGCACGTGGTGGG,-0.17 kcal/mol
5,TTTCGCACGTGTTGGG,-0.03 kcal/mol
6,AGAAACACGTGTGGTT,0.07 kcal/mol
7,CGGATCACGTGAGTGC,0.4 kcal/mol
8,GTGTTCACGTGTTTGC,0.2 kcal/mol
9,TATGGCACGTGAGTCT,0.03 kcal/mol
10,GTGTGCACGTGCACGG,-0.18 kcal/mol
11,GTTACCACGTGCGGGT,-0.08 kcal/mol
12,ATAGTCACGTGTGAAT,0.31 kcal/mol
13,TTGTGCACGTGTCTGA,-0.01 kcal/mol
14,TTGATCACGTGTATCT,0.09 kcal/mol
15,ACGTGCACGTGAGTGG,0.15 kcal/mol
16,TGGTTCACGTGAGAGG,0.46 kcal/mol
17,ATGTGCACGTGAGCAG,0.08 kcal/mol
18,AGAATCACGTGTGGTC,0.29 kcal/mol
19,GAAGGCACGTGGGGCT,-0.16 kcal/mol
20,TGGGACACGTGACTGT,-0.04 kcal/mol
21,GGAGACACGTGGACGG,0.11 kcal/mol

# — the BET-seq Pho4 binding data (Le et al. 2018)
